Here are results for 17 compounds from the supplement of paper PMC9446081.

Screen size: about 39,000 compounds; about 220 (0.56%) showed activity. The list shows a part of the results.
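Also: static incubation at 37 °C against the wild-type strain, values averaged over two biological replicates.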

For the test, the system named is Escherichia coli K-12 BW25113. Description: relative growth (OD600 normalised to plate interquartile mean) (fraction); higher = less growth inhibition, active = 0.2 or less. The following applies: 50 µM; LB; incubation time: overnight (16-24 h).
`C[C@H](CO)N1C[C@H](C)[C@@H](CN(C)C(=O)Cc2cccnc2)Oc2cc(C#CC3(O)CCCC3)ccc2S1(=O)=O`: the relative growth is inactive: 1.
For the compound `CCCOc1ccccc1-c1nc2[nH]nnc2c(=O)[nH]1`, the relative growth is inactive: 1.08.
As for `C[C@H](CO)N1C[C@H](C)[C@H](CN(C)C(=O)c2ccncc2)Oc2cc(-c3cccc(C#N)c3)ccc2S1(=O)=O`, the relative growth is inactive: 1.
Take `C=CC[C@@H](CC(=O)N(CCO)Cc1ccccc1)C(=O)N[C@H](COC(=O)[C@@H](CC=C)CC(=O)OC(C)(C)C)Cc1c[nH]c2ccccc12`: the relative growth is inactive: 1.08.
In the case of `C[C@@H]1CN([C@@H](C)CO)C(=O)c2cc(NC(=O)Nc3ccccc3)ccc2O[C@@H](C)CCCCO[C@H]1CN(C)C(=O)Nc1ccccc1` it was inactive: 1.06; in that of `C[C@@H]1CCCCO[C@@H](CN(C)C(=O)Cc2ccccc2)[C@H](C)CN([C@@H](C)CO)C(=O)c2cc(NC(=O)Nc3ccc4c(c3)OCO4)ccc2O1`, inactive: 1.01.
As for `C[C@H]1CN([C@@H](C)CO)C(=O)CCCn2cc(nn2)CO[C@H]1CN(C)C(=O)Nc1ccc(C(C)(C)C)cc1`, the figure is inactive: 1.
In the case of `C[C@H]1CN([C@@H](C)CO)C(=O)Cc2cc(NC(=O)C3CC3)ccc2O[C@H]1CN(C)Cc1ccc(Oc2ccccc2)cc1` it was inactive: 0.973.
Take `O=C(O)c1cccc(-c2ccco2)c1`: the relative growth was inactive: 1.01.
As for `C[C@H](CO)N1C[C@H](C)[C@@H](CN(C)C(=O)Nc2cccc(C(F)(F)F)c2)OCc2cnnn2CCCC1=O`, the figure is inactive: 0.885; as for `C[C@@H]1CCCCO[C@@H](CN(C)C(=O)Nc2ccc(C(F)(F)F)cc2)[C@H](C)CN([C@@H](C)CO)C(=O)c2cc(NC(=O)NC3CCCCC3)ccc2O1`, inactive: 1.02.
As for `C[C@H](CO)N1C[C@H](C)[C@H](CN(C)C(=O)Nc2ccc(F)cc2)Oc2c(NC(=O)Nc3cccc4ccccc34)cccc2C1=O`, the figure is inactive: 1.01; as for `Cl.N=C(N)NC(=N)NCCc1ccccc1`, inactive: 1.03.
As for `COc1ccc(NC(=O)N(C)C[C@H]2Oc3c(NC(=O)C4CCOCC4)cccc3C(=O)N([C@@H](C)CO)C[C@@H]2C)cc1`, the figure is inactive: 1; as for `C[C@@H]1CCCCO[C@@H](CN(C)C(=O)C2CCCCC2)[C@@H](C)CN([C@H](C)CO)C(=O)c2cc(NS(=O)(=O)c3cccs3)ccc2O1`, inactive: 0.977.
`Cc1ccccc1S(=O)(=O)N(C)C[C@@H]1Oc2ccc(NC(=O)Nc3ccc(Cl)c(Cl)c3)cc2CC(=O)N([C@@H](C)CO)C[C@@H]1C`: the relative growth is inactive: 0.977.
As for `C[C@H]1CCCCO[C@@H](CN(C)C(=O)CCCN(C)C)[C@@H](C)CN([C@@H](C)CO)C(=O)c2cc(NS(C)(=O)=O)ccc2O1`, the figure is inactive: 0.991.
